Experimental data from PMC3415985 (Journal of molecular biology, 2012).

Target: the molecule itself
Assay: AUC

B1: BirA D197A (enzyme)
chain: not shown
- Kd: 500 µM

B2: BirA D282A (enzyme)
chain: not shown
- Kd: 2 µM

B3: BirA E140A (enzyme)
chain: not shown
- Kd: 22 µM

B4: BirA G193A (enzyme)
chain: not shown
- Kd: 0.5 µM

B5: BirA G196A (enzyme)
chain: not shown
- Kd: 5 µM

B6: BirA K194A (enzyme)
chain: not shown
- Kd: ≤ 0.01 µM

B7: BirA K283A (enzyme)
chain: not shown
- Kd: 12 µM

B8: BirA N175A (enzyme)
chain: not shown
- Kd: 60 µM

B9: BirA P143A (enzyme)
chain: not shown
- Kd: 40 µM

B10: BirA Q141A (enzyme)
chain: not shown
- Kd: 3 µM

B11: BirA R170A (enzyme)
chain: not shown
- Kd: 40 µM

B12: BirA T195A (enzyme)
chain: not shown
- Kd: 100 µM

B13: BirA V171A (enzyme)
chain: not shown
- Kd: 0.3 µM
